{"source": "PubChem BioAssay AID504332", "about": "(National Center for Advancing Translational Sciences (NCATS), 2011)", "note": "Among all 350,000 compounds or so, about 31,000 (8.9%) were called active. This list was built around the results that the source calls inconclusive (neither active nor inactive); the mix of calls is not that of the screen. Calls come from the whole dose curve; as a rule, active = well fitted inhibition curve with a large enough effect; inconclusive = small, poorly fitted or top-dose-only effect; inactive = no such curve, though single readings can be large or run the other way. Where the call is inconclusive, the potency comes from a doubtful curve fit. % is set by controls: 0 for no effect and ±100 for the full control effect; potency is the fitted concentration of half-maximal effect; tags give direction and shape of the fitted curve."}
{"biological_target": "Histone-lysine N-methyltransferase EHMT2 (Homo sapiens) (UniProt Q96KQ7)", "sequence (Q96KQ7 whole entry, looked up)": "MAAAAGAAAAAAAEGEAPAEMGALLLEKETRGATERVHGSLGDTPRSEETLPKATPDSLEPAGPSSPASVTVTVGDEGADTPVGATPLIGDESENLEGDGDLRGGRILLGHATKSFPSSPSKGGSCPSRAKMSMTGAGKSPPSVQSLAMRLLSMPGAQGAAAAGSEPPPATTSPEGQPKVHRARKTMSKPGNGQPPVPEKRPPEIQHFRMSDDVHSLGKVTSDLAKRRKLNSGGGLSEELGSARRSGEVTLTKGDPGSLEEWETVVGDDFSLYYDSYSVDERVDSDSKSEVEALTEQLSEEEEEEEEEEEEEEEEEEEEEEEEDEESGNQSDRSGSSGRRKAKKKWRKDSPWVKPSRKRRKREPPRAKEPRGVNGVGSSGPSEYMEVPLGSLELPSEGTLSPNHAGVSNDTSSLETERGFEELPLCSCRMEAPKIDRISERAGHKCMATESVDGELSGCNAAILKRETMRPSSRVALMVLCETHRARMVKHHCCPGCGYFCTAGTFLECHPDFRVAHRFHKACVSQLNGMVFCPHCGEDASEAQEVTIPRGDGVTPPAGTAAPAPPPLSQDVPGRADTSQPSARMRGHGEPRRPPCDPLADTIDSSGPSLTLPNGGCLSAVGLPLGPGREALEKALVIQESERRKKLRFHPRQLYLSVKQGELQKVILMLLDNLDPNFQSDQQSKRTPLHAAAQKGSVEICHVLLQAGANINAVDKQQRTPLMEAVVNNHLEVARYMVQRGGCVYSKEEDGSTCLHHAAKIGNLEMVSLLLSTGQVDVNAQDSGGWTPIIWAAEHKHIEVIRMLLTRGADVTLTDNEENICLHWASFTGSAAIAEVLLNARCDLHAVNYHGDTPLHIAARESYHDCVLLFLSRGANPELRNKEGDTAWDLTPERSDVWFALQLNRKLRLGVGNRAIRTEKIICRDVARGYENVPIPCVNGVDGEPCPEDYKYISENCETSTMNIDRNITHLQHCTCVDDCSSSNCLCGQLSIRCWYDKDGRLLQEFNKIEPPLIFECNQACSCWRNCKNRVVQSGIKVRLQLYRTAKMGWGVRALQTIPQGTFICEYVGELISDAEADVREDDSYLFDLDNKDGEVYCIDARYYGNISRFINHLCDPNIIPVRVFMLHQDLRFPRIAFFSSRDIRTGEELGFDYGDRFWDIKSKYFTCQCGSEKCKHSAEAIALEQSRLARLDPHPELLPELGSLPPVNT", "assay": "qHTS Assay for Inhibitors of Histone Lysine Methyltransferase G9a; note: nearly all actives have a fitted effect of over 75% in size", "conditions": "G9a H3K9 monomethylation, AlphaScreen, 2 h; activity, negative = inhibition: at 59 µM (top of the series) unless noted", "procedure,_shortened": "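Methyltransferase reactions run at room temperature for 2 h (20 nM enzyme, 500 nM biotin-H3K9 peptide, 20 uM SAM) after a 15 min compound preincubation; product detected by AlphaScreen beads and anti-H3K9me1 antibody.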"}
{"smiles": "CN(C)CCN(C(=O)c1cccc(N2C(=O)CCC2=O)c1)c1nc2ccc(Br)cc2s1", "Potency": "inconclusive: 89.1 µM [inhibitor, single point]"}
{"smiles": "CCN(C(=O)COc1cc(=O)n(CC)c2ccccc12)c1cccc(Cl)c1", "Potency": "inconclusive: 5.01 µM [inhibitor, partial curve, poor fit]"}
{"smiles": "CCc1nnc(NC(=O)CN2CCN(Cc3cccc(OC)c3)CC2)s1", "activity, negative = inhibition": "inactive: -12.8% [at 102 µM]"}
{"smiles": "O=C(O)/C=C\\C(=O)NCc1cccnc1", "Potency": "inconclusive: 25.1 µM [inhibitor, partial curve, poor fit]"}
{"smiles": "COC(=O)C1=C(C)N(Cc2ccccc2)C(=NCc2ccc(OC)cc2)N[C@H]1c1cccc(F)c1", "Potency": "active: 79.4 µM"}
{"smiles": "CC(CNCC1CCCO1)COc1cccc2ccccc12", "note": "(configuration not stated)", "activity, negative = inhibition": "inconclusive: -135% [inhibitor]"}
{"smiles": "NS(=O)(=O)c1ccc(NC(=S)NCCc2ccccc2)cc1", "Potency": "active: 11.2 µM"}
{"smiles": "COc1ccc(N2CCCn3c2nc2c3c(=O)n(Cc3ccccc3F)c(=O)n2C)c(OC)c1", "Potency": "inconclusive: 8.91 µM [inhibitor, partial curve, poor fit]"}
{"smiles": "CCN(c1ccc(NC(=O)COC(=O)CCC(=O)c2ccc(F)cc2)cc1)C(C)C", "Potency": "inconclusive: 1.41 µM [inhibitor, single point]"}
{"smiles": "Cc1oc(-c2cccs2)nc1CS(=O)CC(=O)NCCCOC(C)C", "note": "(configuration not stated)", "Potency": "inconclusive: 89.1 µM [inhibitor, single point]"}
{"smiles": "COCCN1CCN(C(=O)c2cc(COc3ccc(Cl)cc3OC)on2)CC1", "activity, negative = inhibition": "inactive: -3.25% [at 102 µM]"}
{"smiles": "Cc1cc(C)nc(N2CCC(C(=O)NNC(=O)Cc3ccccc3)CC2)n1", "Potency": "inconclusive: 89.1 µM [inhibitor, partial curve, poor fit]"}
{"smiles": "Cc1c(NC(=O)CSc2n[nH]c(=O)n2-c2ccccc2)c(=O)n(-c2ccccc2)n1C", "activity, negative = inhibition": "inactive: -0.774% [at 102 µM]"}
{"smiles": "Cc1c(N(C)C)nc2ccccc2c1N", "Potency": "inconclusive: 3.16 µM [inhibitor, single point]"}
{"smiles": "CCOCCCn1c(=N)c(C(=O)NCc2ccc3c(c2)OCO3)cc2c(=O)n3ccccc3nc21", "Potency": "inconclusive: 79.4 µM [inhibitor, partial curve, poor fit]"}
{"smiles": "CCOC(=O)c1cccc(C2=CC(=O)C[C@H](c3ccc(Cl)cc3)C2)c1", "activity, negative = inhibition": "inactive: -7.1% [at 2.33 µM]"}
{"smiles": "Cc1c(C)n(Cc2ccc(F)cc2)c2ccc(C(=O)Nc3ccc(Cl)cc3)cc12", "activity, negative = inhibition": "inactive: 1.99%"}
{"smiles": "O=C1Nc2ccc(Cl)cc2C12Nc1ccccc1-c1nnc(SCc3ccccc3F)nc1O2", "note": "(configuration not stated)", "Potency": "inconclusive: 11.2 µM [inhibitor, partial curve, poor fit]"}
{"smiles": "Cc1c(NC(=O)COC(=O)c2cc(-c3cccc4ccccc34)nc3ccccc23)c(=O)n(-c2ccccc2)n1C", "Potency": "inconclusive: 39.8 µM [inhibitor, full curve]"}
{"smiles": "CC(C)CC(NC(=O)c1ccco1)C(=O)Nc1ccc2c(c1)OCCO2", "note": "(configuration not stated)", "Potency": "inconclusive: 50.1 µM [inhibitor, partial curve]"}
{"smiles": "COc1ccc(NC(=O)CN2C(=O)COc3ccc(S(=O)(=O)N4CCCCC4)cc32)cc1Cl", "activity, negative = inhibition": "inactive: -7.43%"}
{"smiles": "CCOc1ccc(NC2CCN(C(C)=O)CC2)cc1", "Potency": "active: 50.1 µM"}
{"smiles": "COc1ccc(C(=O)CSc2nccn2C)c(OC)c1", "activity, negative = inhibition": "inactive: -7.56% [at 102 µM]"}
{"smiles": "COc1ccc(-c2cc(N)n(S(=O)(=O)c3c(F)c(F)c(F)c(F)c3F)n2)cc1OC", "activity, negative = inhibition": "inactive: -16.3%"}
{"smiles": "Cc1ccc(NC(=O)c2cc(S(=O)(=O)N3CCOCC3)c(Br)s2)cc1", "activity, negative = inhibition": "inactive: -9.23%"}
{"smiles": "CC(=O)OC(C(=O)NCc1ccco1)c1ccncc1", "note": "(configuration not stated)", "Potency": "inconclusive: 79.4 µM [inhibitor, single point]"}
{"smiles": "COc1cc(/C=C2\\SC(=S)N(NC(=O)c3ccc(O)c(OC)c3)C2=O)ccc1O", "Potency": "active: 35.5 µM"}
{"smiles": "COc1cccc2cc(C(=O)OC(C)C(=O)c3ccc(C)cc3)c(=O)oc12", "note": "(configuration not stated)", "Potency": "inconclusive: 70.8 µM [inhibitor, single point]"}
{"smiles": "Cc1ccccc1-c1cc(Nc2ccccc2)ncn1", "activity, negative = inhibition": "inactive: 4.03% [at 0.501 µM]"}
{"smiles": "c1ccc(CSc2nnc3c(n2)OC(c2ccco2)Nc2ccccc2-3)cc1", "note": "(configuration not stated)", "Potency": "inconclusive: 3.16 µM [inhibitor, partial curve, poor fit]"}
{"smiles": "CCC1CCCCN1CCCNC(=O)c1ccc2c(c1)N(Cc1ccc(Cl)cc1)C(=O)c1ccccc1S2(=O)=O", "note": "(configuration not stated)", "Potency": "inconclusive: 11.2 µM [inhibitor, partial curve, poor fit]"}
{"smiles": "CCCN1CCC(N2CCN(c3cccc(C(F)(F)F)c3)CC2)CC1", "Potency": "inconclusive: 4.47 µM [inhibitor, partial curve, poor fit]"}
{"smiles": "CCC(C)[C@H](NC(=O)N1CC(=O)Nc2ccccc21)C(=O)NC(C)CCc1ccccc1", "note": "(some centres not stated)", "Potency": "inconclusive: 112 µM [inhibitor, partial curve, poor fit]"}
{"smiles": "CCn1c(=O)c(C(=O)NNS(=O)(=O)c2ccc(NC(=O)OC)cc2)c(O)c2ccccc21", "Potency": "inconclusive: 89.1 µM [inhibitor, single point]"}
{"smiles": "COc1cccc(C(=O)NC(=S)Nc2ccc3oc(=O)ccc3c2)c1", "Potency": "active: 39.8 µM"}
{"smiles": "CCN(CC(=O)Nc1ccc(NC(C)=O)cc1)C(=O)c1cccc(S(=O)(=O)N2CCc3ccccc3C2)c1", "Potency": "active: 3.16 µM"}
{"smiles": "COc1ccc(C2SCCN2C(=S)Nc2cccc(C(F)(F)F)c2)cc1", "note": "(configuration not stated)", "Potency": "inconclusive: 25.1 µM [inhibitor, single point]"}
{"smiles": "O=C(c1ccc(-c2ccc(Cl)cc2Cl)o1)N1CCOCC1", "Potency": "inconclusive: 39.8 µM [inhibitor, full curve]"}
{"smiles": "COc1cc(C)c(S(=O)(=O)NOCc2ccccc2)c(C)c1C", "activity, negative = inhibition": "inactive: 12.7% [at 0.501 µM]"}
{"smiles": "O=C(O)C1CSC(c2coc3ccccc3c2=O)N1", "note": "(configuration not stated)", "Potency": "inconclusive: 22.4 µM [inhibitor, single point]"}
{"smiles": "CC(C)Nc1ncnc2c1nnn2Cc1ccccc1", "Potency": "inconclusive: 79.4 µM [inhibitor, partial curve, poor fit]"}
{"smiles": "COc1ccc(C2c3sc(=O)[nH]c3SC3C4CCC(C4)C23)cc1", "note": "(configuration not stated)", "Potency": "inconclusive: 10 µM [inhibitor, partial curve, poor fit]"}
{"smiles": "CCCCN(C(=O)c1ccc2c(c1)OCCO2)c1c(N)n(CC(C)C)c(=O)[nH]c1=O", "Potency": "active: 44.7 µM"}
{"smiles": "Cc1ccccc1NC(=O)C(=O)NC(C)CCc1ccccc1", "note": "(configuration not stated)", "Potency": "inconclusive: 3.55 µM [inhibitor, full curve, poor fit]"}
{"smiles": "COCCOC(=O)c1c(C)oc2ccc(OC(=O)c3c(OC)cccc3OC)cc12", "Potency": "inconclusive: 39.8 µM [inhibitor, partial curve, poor fit]"}
{"smiles": "CCCn1nc(NC(=O)c2ccco2)c2cc3cc(C)ccc3nc21", "Potency": "active: 22.4 µM"}
{"smiles": "O=C(COC(=O)COc1ccc(Nc2ccccc2)cc1)NCc1ccco1", "Potency": "active: 50.1 µM"}
{"smiles": "Cc1ccc2nc(-c3ccco3)c(Nc3ccccc3)n2c1", "activity, negative = inhibition": "inactive: 22.1%"}
{"smiles": "O=C(NC1CCN(C(=S)NCc2ccco2)CC1)C12CC3CC(CC(C3)C1)C2", "Potency": "inconclusive: 56.2 µM [inhibitor, partial curve, poor fit]"}
{"smiles": "CCN(CC)c1ccc(/C=N/NC(=O)OC)c(O)c1", "Potency": "inconclusive: 8.91 µM [inhibitor, full curve, poor fit]"}
{"smiles": "COc1cc(/C=N\\NC(=O)C(C)(C)O)ccc1OC/C=C/c1ccccc1", "activity, negative = inhibition": "inactive: 17.7% [at 102 µM]"}
{"smiles": "c1ccc2oc(-c3csc(NCC4CCCO4)n3)cc2c1", "note": "(configuration not stated)", "Potency": "active: 39.8 µM"}
{"smiles": "Cc1ccnc(SCCn2c(N3CCN(c4ccccc4)CC3)nc3c2c(=O)[nH]c(=O)n3C)n1", "Potency": "inconclusive: 89.1 µM [inhibitor, single point]"}
{"smiles": "Cc1ccc(S(=O)(=O)N2CCC(c3nnc(-c4cccc(C)c4)o3)CC2)cc1", "Potency": "active: 3.55 µM"}
{"smiles": "O=C(CSc1nc2ccccc2o1)N/N=C/c1ccc(O)c(O)c1", "activity, negative = inhibition": "inconclusive: -93.2% [inhibitor]"}
{"smiles": "COc1ccc(-c2csc(NC(=O)c3ccc(OCC(=O)N4CCOCC4)c(OC)c3)n2)cc1", "Potency": "inconclusive: 89.1 µM [inhibitor, single point]"}
{"smiles": "COc1ccc(C(=O)NCc2nnc(SCC(=O)Nc3ccc(C)cc3)n2-c2ccccc2)cc1", "activity, negative = inhibition": "inactive: 26.1%"}
{"smiles": "CCc1nc2nc(C)cc(Nc3cc(Cl)ccc3OC)n2n1", "Potency": "inconclusive: 6.31 µM [inhibitor, partial curve, poor fit]"}
{"smiles": "O=C(COc1ccccc1Cl)N1CCN(c2ccc([N+](=O)[O-])c(N3CCOCC3)c2)CC1", "activity, negative = inhibition": "inconclusive: -61.1% [inhibitor]"}
{"smiles": "O=C(Nc1cccnc1)c1cccs1", "activity, negative = inhibition": "inactive: -15.5% [at 12.7 µM]"}
{"smiles": "Cn1c(Cc2cccc3ccccc23)nnc1SCC(=O)N1CCN(c2cccc(Cl)c2)CC1", "Potency": "inconclusive: 17.8 µM [inhibitor, partial curve, poor fit]"}
{"smiles": "Cc1ccc(C(C)C)c(OCc2ccc(C(=O)Nc3ccc(S(N)(=O)=O)cc3C)o2)c1", "Potency": "inconclusive: 35.5 µM [inhibitor, single point]"}
{"smiles": "Cc1cccc(N(C)C(=O)CS(=O)(=O)c2cccc3nsnc23)c1", "activity, negative = inhibition": "inactive: 9.05%"}
{"smiles": "Cc1ccc(S(=O)(=O)c2nc(-c3ccco3)oc2SCC(=O)c2ccc(Cl)cc2)cc1", "Potency": "inconclusive: 4.47 µM [inhibitor, partial curve, poor fit]"}
{"smiles": "COc1cccc(/C=N/NC(=S)NC2CC3CCC2C3)c1OC", "note": "(configuration not stated)", "Potency": "inconclusive: 28.2 µM [inhibitor, partial curve, poor fit]"}
{"smiles": "Cn1c(=O)n(C)c2cc(NS(=O)(=O)c3ccccc3[N+](=O)[O-])ccc21", "Potency": "inconclusive: 20 µM [inhibitor, partial curve, poor fit]"}
{"smiles": "CCOc1ccc(CCNC(=O)c2ccc(C)c(-n3cnc4cccnc43)c2)cc1", "Potency": "inconclusive: 7.08 µM [inhibitor, partial curve, poor fit]"}
